Measured values: the supplement of paper PMC10338343
± gives the standard deviation. Whole data set: some 5,500 sequences, median “pre-steady-state target cleavage rate” near 0.1, cut for the highest 2% near 0.64. The list shows a part of the results, in another mix than the full data.

system: MIWI (PIWIL1) piRISC loaded with piRNA #2 (30 nt); experiment: pre-steady-state target cleavage rate (min^-1); MIWI and MILI are mouse PIWI proteins and EfPiwi is from a freshwater sponge; tags in brackets are library labels; higher = faster piRNA-guided slicing of the target; conditions: guide: piRNA #2 5'p-UUAGGUAACCCAGUAGAUCCAGAGGAAUUC; auxiliary factor: 500 nM mouse GTSF1
Protocol: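 Cleave-'n-Seq: a library of target RNAs (target site embedded in constant flanks, ACAGCATTCCGCGTTAGTGATATCCG... 5' flank; DNA-blocked outside the site) at 0.1 nM was incubated with 1 nM active mouse MILI or MIWI piRISC (synthetic 5'-monophosphorylated piRNA guide) with or without 500 nM mouse GTSF1 at 33 °C for 1 min to 16 h. Uncleaved targets were sequenced and normalised to non-target controls, and the pooled three trials were fitted to a burst-and-steady-state model to give the pre-steady-state cleavage rate (min^-1; k3 is constrained to at most 1e-4). Sequence is the target site only; target names encode pairing extent (gX:gY) and contiguous / 1-mismatch / 2-mismatch / bulge geometry. Fits with R² ≤ 0 are excluded.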

Sequence	pre-steady-state target cleavage rate
CAAUUCCUGUGGAUCUAGUGGGUUACCUAA	0.16 ± 0.028
CUUAAGGAGCGGAUCUACUGGGUUACCUAA	0.0188 ± 0.013
CUUAACCUCAGGAUCUACUGGGUAACCUAA	0.117 ± 0.024
GUAUUCCUCUGCAUCUACUGGGUUACCUAA	0.223 ± 0.068
CUUUUCCUCUGGAACAACUGGGUUACCUAA	0.4 ± 0.037
CAAUUCCUCUGGAUCUUCUGGGUUAGCUAA	0.181 ± 0.061
CUUAAGCUCUGGAUCUACUGGGAUACGUAA	0.142 ± 0.022
CUUUUCCUCUGGAACUACUGGGUUACCUUA	0.247 ± 0.035
CUUUUCCUGUGGAUCUAGUGGGUUACCUAA	0.201 ± 0.017
CUAUUCCUCUGGAUCAACAGGGUUACCUAA	0.21 ± 0.025
CUUAACCUGUGGAUGUACUGGGUUACCUAA	0.373 ± 0.054
CUUUUCCUCUCGAUCUACUGGGUUACGUAA	0.746 ± 0.034
CUUAAGCUGUGGAUCUACUGGGUUACGUAA	0.324 ± 0.059
CUUUUCCUCUGGAUCUACUGGCAAACCUAA	0.00392 ± 0.0027
CUUAUCCUCUGGAUCUACUCGGUUACCUUA	0.0652 ± 0.02
CUUAAGGUCUGGAUCAUACUGGGUUACCUAA	0.00457 ± 0.0032
CUUUUCGUCUGGAUCUUCUGGGUUACCUAA	0.134 ± 0.023
CUUAAGGAGUGGAUCUACUGGGAUACCUUA	0.00465 ± 0.0034
CUUAUCCUCUGGAUCUACUGGCAUACCUAA	0.00689 ± 0.0037
GAAUUCCUCUGGAUCUACUGGGUUGACCUAA	0.364 ± 0.038
CUUAAGCUGUGGAUCUACUGGGAUACCUAA	0.0791 ± 0.029
CUUAACCUCUGGAUCUACUGGGUUACCAAA	0.257 ± 0.038
CUUAAGCUCUGGAUCUACUGGGUUACCUAU [g2:g24:cont:t1U]	0.0709 ± 0.014
CUAUUCCUCUGGAUCGACUGGGUUACCUAA	0.239 ± 0.032

Sequence	pre-steady-state target cleavage rate
CUUAAGGUCUGGAUCUACUGGGUAACGUAA	0.0836 ± 0.016
CAAUUCCUCUGGAUCUACUGCGUUACGUAA	0.573 ± 0.096
CAAUUCCUCUGGAUCUACUGGGUGUACCUAA	0.362 ± 0.05
CAAUUCCUCUGGAUGAUCUGGGUUACCUAA	0.0124 ± 0.0051
CUUAAGGAGAGGAUCCACUGGGUUACCUAA	0.0131 ± 0.0026
CUUAAGGUGUCGAUCUACUGGGUUACCUAA	0.00494 ± 0.0027
CUAUUCCUCUGGAUGUACUGGGUUACCUUA	0.403 ± 0.043
GAAUUCCUCUGGAUCAACUGGGUUACCUAA	0.333 ± 0.051
GAAUUCGUCUGGAUCUAGUGGGUUACCUAA	0.0625 ± 0.014
CAAUACCUCUGGAUCUACUGGGAUACCUAA	0.248 ± 0.031
CUUAAGGACUGGAUCUACAGGGUUACCAAA	0.0681 ± 0.018
CUUAUCCUCGGAUCUACUGGGUUACCUAA	0.313 ± 0.06
CAAUUCGUCUGGAUCUACUGGGUUACGUAA	0.482 ± 0.074
CAAUUCCACUGGAUCUACUGGGUAACCUAA	0.293 ± 0.061
CUUAUCCUCUGGAUCUACUGGGUUACACUAA	0.551 ± 0.047
CUUAAGCUCCUGGAUCUACUGGGUUACCUAA	0.181 ± 0.021
CUUUUCCUCUGGAUGUACUGGGUUUCCUAA	0.316 ± 0.068
CUUUUCCUCUGGUCUACUGGGUUACCUAA	0.205 ± 0.057
CUUAAGGAGUGAAUCUACUGGGUUACCUAA	0.0123 ± 0.0035
CUUAACCUCUGGAUCUACUCGGUUUCCUAA	0.023 ± 0.0077
CUUUUCCUCUGGAUCUACGGGUUACCUAA	0.0476 ± 0.0059
CAUUUCCUCUGGAUCUACUCGGUUACCUAA	0.111 ± 0.023
CUUUUCCUCUCGAUCUACUGGGAUACCUAA	0.435 ± 0.028
CUUAAGGAGUGGAUCUACUCGGUUACGUAA	0.0153 ± 0.011

Sequence	pre-steady-state target cleavage rate
CUUAAGCUCUGGAUCUACUGGGUUUACCUAA	0.116 ± 0.017
GUAUUCCUGUGGAUCUACUGGGUUACCUAA	0.168 ± 0.045
CUUAAGCUCUGGAUCUACUGGCUUACCUUA	0.0348 ± 0.013
CUUAAGGACGUGGAUCUACUGGGUUACCUAA	0.093 ± 0.042
CUUAUCCUCUCGAUCUACAGGGUUACCUAA	0.354 ± 0.024
CUUAACCACUGGAUCUACUGGGUUACCUUA	0.32 ± 0.043
CAAUACCUCUGGAUCUACUCGGUUACCUAA	0.0684 ± 0.016
CAAUUCCACUGGAUCUACAGGGUUACCUAA	0.208 ± 0.031
CUUAAGCUCUGGAUCAACUGGCUUACCUAA	0.0298 ± 0.0089
CUUUUCCAGUGGAUCUACUGGGUUACCUAA	0.521 ± 0.047
CUUAAGGACUGCAUCUACUGGGUUACGUAA	0.0548 ± 0.032
GAAUUCCUGUGGAUCUACUGGGUUUCCUAA	0.217 ± 0.04
CUUAAGCUCAGGAUCUACAGGGUUACCUAA	0.081 ± 0.014
GAAUUCCUCAGGAUGUACUGGGUUACCUAA	0.435 ± 0.052
CUUAACCUCUGGAACUACUGGGUUACGUAA	0.373 ± 0.024
GAAUUCCUCUGGAUCUACUGGUUACCUAA	0.119 ± 0.031
CUUUUCCUCUGGUUCUUCUGGGUUACCUAA	0.284 ± 0.03
CUUAAGGAGUGGAUCUACUGAGUUACCUAA	0.188 ± 0.049
CUUUUCCUCUGGAUCUACUGGGUUACGAAA	0.264 ± 0.048
CUUAAGCACUGGAUCUACUGGGAUACCUAA	0.167 ± 0.018
GAAUUCCUCUGAGAUCUACUGGGUUACCUAA	0.381 ± 0.046
CUAUUCCUCUGGAUCUACUCGGUUACCUAA	0.104 ± 0.019
CUUAAGCUCUCGAUCUAGUGGGUUACCUAA	0.165 ± 0.014
CUUAAGGUCUGGAUCUUCUGGCUUACCUAA	0.015 ± 0.012
